# Results reported in the supplement of paper PMC8728848.
# The other results are listed elsewhere or left out.
# B1: Morniga (Morus nigra) (protein)
# chain: MAGTSTNTQTTGTSQTVEVGLWGGPGGNAWDDGSYTGIREINLSHGDAIGAFSVIYDLNGQPFTGPTHPGNEPSFKTVKITLDFPNEFLVSVSGYTGVLPRLATGKDVIRSLTFKTNKKTYGPYGKEEGTPFSLPIENGLIVGFKGRSGFVVDAIGVHLS
# Experiments:
# Assay in all cases: glycan array binding signal (z-score within array); higher = stronger binding
# Details in all cases: glycan notation: IUPAC condensed, linker removed
# Fuc(a1-2)Gal = target: Fuc(a1-2)Gal
# Method in brief: (§1)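 The Consortium for Functional Glycomics database supplied 3228 glycan arrays, of which those lacking an available protein sequence were dropped. The binding signal, a within-array Z-score, was averaged across arrays of the same protein sequence and across linkers. Negative scores can be read as non-binding.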
# Fuc(a1-2)Gal(b1-3)GalNAc = target: Fuc(a1-2)Gal(b1-3)GalNAc
# Method in brief: as §1
# [1] = target: Fuc(a1-2)Gal(b1-3)GalNAc(a1-3)[Fuc(a1-2)]Gal(b1-4)Glc
# Method in brief: as §1
# [2] = target: Fuc(a1-2)Gal(b1-3)GalNAc(a1-3)[Fuc(a1-2)]Gal(b1-4)GlcNAc
# Method in brief: as §1
# [3] = target: Fuc(a1-2)Gal(b1-3)GalNAc(b1-3)Gal
# Method in brief: as §1
# [4] = target: Fuc(a1-2)Gal(b1-3)GalNAc(b1-3)Gal(a1-4)Gal(b1-4)Glc
# Method in brief: as §1
# [5] = target: Fuc(a1-2)Gal(b1-3)GalNAc(b1-4)[Neu5Ac(a2-3)]Gal(b1-4)Glc
# Method in brief: as §1
# Fuc(a1-2)Gal(b1-3)GlcNAc = target: Fuc(a1-2)Gal(b1-3)GlcNAc
# Method in brief: as §1
# [6] = target: Fuc(a1-2)Gal(b1-3)GlcNAc(b1-2)Man(a1-3)[Fuc(a1-2)Gal(b1-3)GlcNAc(b1-2)Man(a1-6)]Man(b1-4)GlcNAc(b1-4)GlcNAc
# Method in brief: as §1
# [7] = target: Fuc(a1-2)Gal(b1-3)GlcNAc(b1-2)Man(a1-3)[Fuc(a1-2)Gal(b1-3)GlcNAc(b1-2)Man(a1-6)]Man(b1-4)GlcNAc(b1-4)[Fuc(a1-6)]GlcNAc
# Method in brief: as §1
# [8] = target: Fuc(a1-2)Gal(b1-3)GlcNAc(b1-3)Gal(b1-4)Glc
# Method in brief: as §1
# [9] = target: Fuc(a1-2)Gal(b1-3)GlcNAc(b1-3)GalNAc
# Method in brief: as §1
# [10] = target: Fuc(a1-2)Gal(b1-3)GlcNAc(b1-3)[Fuc(a1-2)Gal(b1-3)GlcNAc(b1-6)]GalNAc
# Method in brief: as §1
# [11] = target: Fuc(a1-2)Gal(b1-3)GlcNAc(b1-3)[Fuc(a1-3)[Gal(b1-4)]GlcNAc(b1-6)]Gal(b1-4)Glc
# Method in brief: as §1
# [12] = target: Fuc(a1-2)Gal(b1-3)GlcNAc(b1-3)[Gal(b1-4)GlcNAc(b1-6)]Gal(b1-4)Glc
# Method in brief: as §1
# [13] = target: Fuc(a1-2)Gal(b1-3)GlcNAc(b1-3)[Neu5Ac(a2-6)Gal(b1-4)GlcNAc(b1-6)]Gal(b1-4)Glc
# Method in brief: as §1
# [14] = target: Fuc(a1-2)Gal(b1-3)GlcNAc6S
# Method in brief: as §1
# [15] = target: Fuc(a1-2)Gal(b1-3)[Fuc(a1-4)]GlcNAc
# Method in brief: as §1
# [16] = target: Fuc(a1-2)Gal(b1-3)[Fuc(a1-4)]GlcNAc(b1-2)Man(a1-3)[Fuc(a1-2)Gal(b1-3)[Fuc(a1-4)]GlcNAc(b1-2)Man(a1-6)]Man(b1-4)GlcNAc(b1-4)GlcNAc
# Method in brief: as §1
# [17] = target: Fuc(a1-2)Gal(b1-3)[Fuc(a1-4)]GlcNAc(b1-2)Man(a1-6)[Fuc(a1-2)Gal(b1-3)[Fuc(a1-4)]GlcNAc(b1-2)Man(a1-3)]Man(b1-4)GlcNAc(b1-4)[Fuc(a1-6)]GlcNAc
# Method in brief: as §1
# [18] = target: Fuc(a1-2)Gal(b1-3)[Fuc(a1-4)]GlcNAc(b1-3)[Fuc(a1-3)[Gal(b1-4)]GlcNAc(b1-6)]Gal(b1-4)Glc
# Method in brief: as §1
# [19] = target: Fuc(a1-2)Gal(b1-3)[Fuc(a1-4)]GlcNAc(b1-3)[Gal(b1-4)GlcNAc(b1-6)]Gal(b1-4)Glc
# Method in brief: as §1
# Fuc(a1-2)Gal(b1-4)Glc = target: Fuc(a1-2)Gal(b1-4)Glc
# Method in brief: as §1
# Fuc(a1-2)Gal(b1-4)Glc6S = target: Fuc(a1-2)Gal(b1-4)Glc6S
# Method in brief: as §1
# Fuc(a1-2)Gal(b1-4)GlcNAc = target: Fuc(a1-2)Gal(b1-4)GlcNAc
# Method in brief: as §1
# [20] = target: Fuc(a1-2)Gal(b1-4)GlcNAc(b1-2)Man
# Method in brief: as §1
# [21] = target: Fuc(a1-2)Gal(b1-4)GlcNAc(b1-2)Man(a1-3)[Fuc(a1-2)Gal(b1-4)GlcNAc(b1-2)Man(a1-6)]Man(b1-4)GlcNAc(b1-4)GlcNAc
# Method in brief: as §1
# [22] = target: Fuc(a1-2)Gal(b1-4)GlcNAc(b1-2)Man(a1-3)[Fuc(a1-2)Gal(b1-4)GlcNAc(b1-2)Man(a1-6)]Man(b1-4)GlcNAc(b1-4)[Fuc(a1-6)]GlcNAc
# Method in brief: as §1
# [23] = target: Fuc(a1-2)Gal(b1-4)GlcNAc(b1-2)[Fuc(a1-2)Gal(b1-4)GlcNAc(b1-4)]Man(a1-3)[Fuc(a1-2)Gal(b1-4)GlcNAc(b1-2)Man(a1-6)]Man(b1-4)GlcNAc(b1-4)GlcNAc
# Method in brief: as §1
# [24] = target: Fuc(a1-2)Gal(b1-4)GlcNAc(b1-3)Gal(b1-4)GlcNAc
# Method in brief: as §1
# [25] = target: Fuc(a1-2)Gal(b1-4)GlcNAc(b1-3)Gal(b1-4)GlcNAc(b1-3)Gal(b1-4)GlcNAc
# Method in brief: as §1
# [26] = target: Fuc(a1-2)Gal(b1-4)GlcNAc(b1-3)GalNAc
# Method in brief: as §1
# [27] = target: Fuc(a1-2)Gal(b1-4)GlcNAc(b1-3)[Fuc(a1-2)Gal(b1-4)GlcNAc(b1-6)]GalNAc
# Method in brief: as §1
# [28] = target: Fuc(a1-2)Gal(b1-4)GlcNAc(b1-6)GalNAc
# Method in brief: as §1
# [29] = target: Fuc(a1-2)Gal(b1-4)GlcNAc6S
# Method in brief: as §1
# [30] = target: Fuc(a1-2)Gal(b1-4)[Fuc(a1-3)]GlcNAc
# Method in brief: as §1
# [31] = target: Fuc(a1-2)Gal(b1-4)[Fuc(a1-3)]GlcNAc(b1-2)Man(a1-3)[Fuc(a1-2)Gal(b1-4)[Fuc(a1-3)]GlcNAc(b1-2)Man(a1-6)]Man(b1-4)GlcNAc(b1-4)GlcNAc
# Method in brief: as §1
# [32] = target: Fuc(a1-2)Gal(b1-4)[Fuc(a1-3)]GlcNAc(b1-2)Man(a1-6)[Fuc(a1-2)Gal(b1-4)[Fuc(a1-3)]GlcNAc(b1-2)Man(a1-3)]Man(b1-4)GlcNAc(b1-4)[Fuc(a1-6)]GlcNAc
# Method in brief: as §1
# [33] = target: Fuc(a1-2)Gal(b1-4)[Fuc(a1-3)]GlcNAc(b1-2)[Fuc(a1-2)Gal(b1-4)[Fuc(a1-3)]GlcNAc(b1-4)]Man(a1-3)[Fuc(a1-2)Gal(b1-4)[Fuc(a1-3)]GlcNAc(b1-2)Man(a1-6)]Man(b1-4)GlcNAc(b1-4)GlcNAc
# Method in brief: as §1
# [34] = target: Fuc(a1-2)Gal(b1-4)[Fuc(a1-3)]GlcNAc(b1-3)Gal(b1-4)[Fuc(a1-3)]GlcNAc
# Method in brief: as §1
# [35] = target: Fuc(a1-2)Gal(b1-4)[Fuc(a1-3)]GlcNAc(b1-3)Gal(b1-4)[Fuc(a1-3)]GlcNAc(b1-3)Gal(b1-4)[Fuc(a1-3)]GlcNAc
# Method in brief: as §1
# [36] = target: Fuc(a1-2)Gal(b1-4)[Fuc(a1-3)]GlcNAc(b1-3)GalNAc
# Method in brief: as §1
# [37] = target: Fuc(a1-2)Gal(b1-4)[Fuc(a1-3)]GlcNAc(b1-3)[Neu5Ac(a2-6)Gal(b1-4)GlcNAc(b1-6)]Gal(b1-4)Glc
# Method in brief: as §1
# [38] = target: Fuc(a1-2)Gal6S(b1-3)GlcNAc
# Method in brief: as §1
# [39] = target: Fuc(a1-2)Gal6S(b1-3)GlcNAc6S
# Method in brief: as §1
binder,measurement,setting,value
B1,glycan array binding signal (z-score),Fuc(a1-2)Gal,-0.331
same,glycan array binding signal (z-score),Fuc(a1-2)Gal(b1-3)GalNAc,-0.283
same,glycan array binding signal (z-score),[1],-0.335
same,glycan array binding signal (z-score),[2],-0.33
same,glycan array binding signal (z-score),[3],-0.345
same,glycan array binding signal (z-score),[4],-0.347
same,glycan array binding signal (z-score),[5],-0.335
same,glycan array binding signal (z-score),Fuc(a1-2)Gal(b1-3)GlcNAc,-0.339
same,glycan array binding signal (z-score),[6],0.037
same,glycan array binding signal (z-score),[7],-0.173
same,glycan array binding signal (z-score),[8],-0.338
same,glycan array binding signal (z-score),[9],-0.32
same,glycan array binding signal (z-score),[10],-0.326
same,glycan array binding signal (z-score),[11],-0.342
same,glycan array binding signal (z-score),[12],-0.337
same,glycan array binding signal (z-score),[13],-0.335
same,glycan array binding signal (z-score),[14],-0.321
same,glycan array binding signal (z-score),[15],-0.278
same,glycan array binding signal (z-score),[16],-0.19
same,glycan array binding signal (z-score),[17],-0.228
same,glycan array binding signal (z-score),[18],-0.325
same,glycan array binding signal (z-score),[19],-0.269
same,glycan array binding signal (z-score),Fuc(a1-2)Gal(b1-4)Glc,-0.341
same,glycan array binding signal (z-score),Fuc(a1-2)Gal(b1-4)Glc6S,-0.332
same,glycan array binding signal (z-score),Fuc(a1-2)Gal(b1-4)GlcNAc,-0.333
same,glycan array binding signal (z-score),[20],-0.327
same,glycan array binding signal (z-score),[21],2.24
same,glycan array binding signal (z-score),[22],0.412
same,glycan array binding signal (z-score),[23],-0.149
same,glycan array binding signal (z-score),[24],-0.346
same,glycan array binding signal (z-score),[25],-0.332
same,glycan array binding signal (z-score),[26],-0.331
same,glycan array binding signal (z-score),[27],-0.325
same,glycan array binding signal (z-score),[28],-0.329
same,glycan array binding signal (z-score),[29],-0.33
same,glycan array binding signal (z-score),[30],-0.334
same,glycan array binding signal (z-score),[31],-0.109
same,glycan array binding signal (z-score),[32],0.63
same,glycan array binding signal (z-score),[33],-0.28
same,glycan array binding signal (z-score),[34],-0.334
same,glycan array binding signal (z-score),[35],-0.329
same,glycan array binding signal (z-score),[36],-0.263
same,glycan array binding signal (z-score),[37],-0.329
same,glycan array binding signal (z-score),[38],-0.337
same,glycan array binding signal (z-score),[39],-0.295
